Test results from PubChem BioAssay AID1159614 (National Center for Advancing Translational Sciences (NCATS), 2016).
In all, about 45,000 compounds went through this assay and about 65 (0.1%) were called active. The call rests on the fitted dose curve; in most records, active means well fitted activation curve with a large enough effect; inconclusive means small, poorly fitted or top-dose-only effect; inactive means no such curve, though single readings can be large or run the other way. The list shows a part of the results.

Biological target: Galactocerebrosidase (Homo sapiens) (UniProt P54803)
UniProt P54803, sequence (P54803 whole entry, looked up): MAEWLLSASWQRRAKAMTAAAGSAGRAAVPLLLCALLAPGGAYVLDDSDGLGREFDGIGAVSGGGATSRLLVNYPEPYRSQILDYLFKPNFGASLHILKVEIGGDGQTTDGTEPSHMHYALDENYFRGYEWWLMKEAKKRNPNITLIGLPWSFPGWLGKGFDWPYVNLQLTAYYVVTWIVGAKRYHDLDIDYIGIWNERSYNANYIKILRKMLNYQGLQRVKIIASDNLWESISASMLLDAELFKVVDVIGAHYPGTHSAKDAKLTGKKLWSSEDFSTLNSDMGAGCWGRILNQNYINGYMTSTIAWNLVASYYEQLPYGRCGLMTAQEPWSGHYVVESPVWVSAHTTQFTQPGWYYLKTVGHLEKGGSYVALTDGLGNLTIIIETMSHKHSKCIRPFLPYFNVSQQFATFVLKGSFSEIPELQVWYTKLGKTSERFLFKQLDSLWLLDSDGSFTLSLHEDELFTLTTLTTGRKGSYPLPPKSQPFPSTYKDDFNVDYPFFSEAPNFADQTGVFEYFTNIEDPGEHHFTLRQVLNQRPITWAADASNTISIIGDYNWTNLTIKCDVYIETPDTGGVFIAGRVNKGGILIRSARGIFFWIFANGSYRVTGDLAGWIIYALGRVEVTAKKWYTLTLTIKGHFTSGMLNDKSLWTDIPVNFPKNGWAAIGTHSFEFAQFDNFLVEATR
Test: A Novel Cell-Based Assay to Identify Small Molecules for B -Galactocerebrosidase; further: 0% is about no effect; nearly all actives have a fitted effect of over 65% in size
Settings: 145M-Twi-hGALC-G270D cells (Twitcher mouse brain line with human GALC G270D), HMU-beta-Gal fluorescence, 48 h; series mostly up to 57.5 µM; activation: at the top concentration
How it was run: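 Live 145M-Twi cells (Twitcher mouse brain-derived, GALC-null) stably expressing human GALC-G270D, with a wild-type GALC line, were compound-treated. Residual GALC activity was then read as fluorescence from 0.1 mM final HMU-β-gal at pH 5.2; higher signal means activation.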

activation, inactive:
O=S(=O)(Nc1cc(F)ccc1F)c1ccc2[nH]c3c(c2c1)CCCC3 -10.1%
CC(C)(C)C(=O)Nc1ccc2nc(SCC(=O)N3CCOCC3)sc2c1 -1.02%
O=C(Cc1ccccc1)NC1CC(=O)N(c2ccccc2)C1 (stereo not drawn) -2.48%
Cc1cc(-c2nc3ncccc3o2)ccc1NC(=O)COc1ccccc1C -10.7%
CCOC(=O)c1ccccc1NC(=O)CSc1ccc(-c2cccs2)nn1 -4.78%
Cc1ccc2occ(CC(=O)N(Cc3ccc(Cl)cc3)C3CCS(=O)(=O)C3)c2c1 (stereo not drawn) -11.4%
COc1ccc(-c2cc(C(F)(F)F)nc(SCCC(=O)Nc3ccccc3F)n2)cc1 -13.5%
O=c1c2oc3ccccc3c2n(Cc2cccc(Cl)c2)c(=O)n1Cc1ccco1 -4.23%
CCN(CC)c1ccc(NC(=O)c2cnc3c(-c4ccccc4)c(C)nn3c2C)c(C)c1 -15.4%
Cc1c(NC(=O)c2cc(-c3ccc(F)cc3)on2)c(=O)n(-c2ccccc2)n1C -9.4%
Cc1nnc(N2CCN(C(=O)NC(C)C)CC2)c2nn(-c3ccccc3)c(C)c12 -22%
CCc1ccc(Nc2nn(-c3ccc(OC(F)(F)F)cc3)nc2C(C)=O)cc1 2.32%
Cn1cc(S(=O)(=O)c2cccc(Cl)c2)c(=O)c2cc(F)c(N3CCN(c4ccc(F)cc4)CC3)cc21 -11.4%
Cc1ccc(-c2noc(CNS(=O)(=O)c3ccc(F)cc3)n2)cc1 -12.1%
Cc1cccc(OCC(=O)Nc2nc3c(s2)CC(C(C)(C)C)CC3)c1C (stereo not drawn) -17.7%
COc1ccccc1N1CCN(C(=O)CN2C(=O)COc3ccc(S(=O)(=O)N4CCCCCC4)cc32)CC1 -6.98%
Cn1nnc2c(N3CCN(c4ccccc4)CC3)ncnc21 -18.9%
COCCn1c(SCC(=O)c2ccc(C)cc2C)nc2cc(C(=O)NC3CCCC3)ccc2c1=O -8.88%
O=C(c1noc2c1CCCCC2)N1CCN(c2cccc(C(F)(F)F)c2)CC1 -34.4%
CC(=O)c1c(C)oc2c(Br)cc(NS(=O)(=O)c3ccc(Br)cc3)cc12 -26.5%
CC(C)c1ccc(NC(=O)c2cc(S(=O)(=O)N3CCCCC3)cn2C)cc1 9.36%
COc1ccccc1CNc1nc2ccc(Cl)cc2n2cnnc12 -23.4%
COC(=O)c1cc(NC(=O)c2nn(C)c3c2CSc2ccccc2-3)cc(C(=O)OC)c1 1.6%
Cc1ccc(Cl)cc1N1CCN(C(=O)C2CCN(S(=O)(=O)c3cccc4nonc34)CC2)CC1 -19.2%
Cc1ccccc1OC(=O)CSc1nnc(-c2ccc3c(c2)OCO3)o1 -5.65%
Cc1ccc(C(=O)Nc2ccc(S(=O)(=O)O)c3cc(S(=O)(=O)O)cc(S(=O)(=O)O)c23)cc1NC(=O)c1cccc(NC(=O)Nc2cccc(C(=O)Nc3cc(C(=O)Nc4ccc(S(=O)(=O)O)c5cc(S(=O)(=O)O)cc(S(=O)(=O)O)c45)ccc3C)c2)c1 -14.9%
CN1CCN(C(=O)Cn2c(-c3cccs3)cc3cc(Cl)ccc32)CC1 -16%
CC(=O)Nc1ccc(S(=O)(=O)Nc2ccc([N+](=O)[O-])cc2)cc1 -14.2%
CCOc1ccc(N(CC)S(=O)(=O)N2CCCC(C(=O)Nc3cc(Cl)ccc3C)C2)cc1 (stereo not drawn) -9.52%
COC(=O)[C@H]1[C@H]2C[C@@H]3c4[nH]c5cc(OC)ccc5c4CCN3C[C@H]2C[C@@H](OC(=O)/C=C/c2ccc(O)c(OC)c2)[C@@H]1OC -6.21%
CC(C)COc1ccc(C2=NC(c3ccncc3)=Nc3ccc(F)cc3N2)cc1 17.9%
Cc1ccc(-c2n[nH]c3c2C(c2cccc(O)c2)N(c2ccc(C(=O)O)cc2)C3=O)cc1 (stereo not drawn) -10%
CCN(CC)CCNC(=O)c1ccc(CSc2nc3ccncc3n2Cc2cccc(F)c2)cc1 -33.5%
CC(C)(C)c1ccc(C(=O)N2CCC(c3nc(-c4ccc(S(=O)(=O)N5CCCC5)cc4)no3)CC2)cc1 -10.4%
CCCCN(CC)CCCNC(=O)Cn1ncc2c3ccccc3n(Cc3ccccc3F)c2c1=O -9.2%
CCOc1ccc(-c2cc3c(=O)n(Cc4nc(-c5ccc(OC(C)C)cc5)oc4C)ccn3n2)cc1Cl 12.4%
O=C(CCCn1c(=O)c2ccccc2n(CC(=O)Nc2cccc(C(F)(F)F)c2)c1=O)NCc1ccc2c(c1)OCO2 2.32%
Cc1ccccc1-c1nc(CN2CCC(C(=O)NCCc3ccccc3)CC2)c(C)o1 -10.8%
CCCN(CCC)S(=O)(=O)c1ccc2c(c1)N(CC(=O)NCc1ccc(F)cc1Cl)C(=O)CS2 -9.26%
O=C(Cn1nc(N2CCN(c3ccccc3)CC2)ccc1=O)Nc1ccc(F)cc1F -12.3%
O=C(Oc1ccccc1)c1cccc(C(=O)Oc2ccccc2)c1 -12.7% [at 129 µM]
COc1cc(C2SC[C@H]3C(=O)N(c4ccccc4)C(=O)N23)cc(OC)c1OC (stereo partly drawn) -39.2%
COc1ccc(CNC(=O)C2CCCN(C(=O)N3CCOc4ccccc43)C2)cc1 (stereo not drawn) -25.3%
Cc1ccc(S(=O)(=O)c2nnn3c2nc(NC(C)c2ccccc2)c2sccc23)cc1 (stereo not drawn) 13.8%
COc1cccc(N2CCN(c3ncnc4c3c(-c3ccccc3)cn4-c3ccc(C)cc3)CC2)c1 -19%
O=C(NCc1cccn1Cc1ccccc1)Nc1ccc(Br)cc1F -19%
O=C(Nc1ccccc1C(=O)OCc1cc(=O)n2ccsc2n1)c1ccc(Cl)cc1 -4.94%
O=C(COCc1cc(-c2ccc(F)cc2)on1)Nc1cccc(Cl)c1Cl -13%
CCCc1cc(=O)[nH]c2nnc(SCC(=O)Nc3ccc(OC)cc3)n12 -6.41%
Cc1ccc(S(=O)(=O)NC(=O)NC2CCCCC2)cc1 -14.6%
Cc1ccc(Cl)cc1NC(=O)Nc1nnc(N2CCCC(C)C2)s1 (stereo not drawn) -11.3%
CCN(CC)S(=O)(=O)c1ccc2c(c1)nc(CN(C)C(=O)Nc1ccc(Cl)cc1)n2C -12.3%
CCOC(=O)c1c(C)[nH]c(C)c1S(=O)(=O)NCC(=O)NCc1ccc(C)cc1 -14%
COc1ccccc1CNC(=O)CCNS(=O)(=O)c1ccc2c(c1)CCCC(=O)N2 -19.4%
CCOc1ccc(N2CC(NC(=O)c3ccc(S(=O)(=O)N4CCCC4)cc3)CC2=O)cc1 (stereo not drawn) -7.16%
COCCNC(=O)c1c(-c2ccccc2)c(-c2ccccc2)nn(C)c1=O -9.12%
Cc1ccc(-n2nc3c(=O)n(CCCC(=O)NCc4ccccc4C)nc(C)c3c2C)cc1 -4.36%
Cn1c(=O)oc2cc(S(=O)(=O)N3CCC(C(=O)NCc4ccccc4)CC3)ccc21 -12.4%
